# Test results as given in PubChem BioAssay AID504832 (National Center for Advancing Translational Sciences (NCATS), 2011).
# Among all 310,000 compounds or so, about 18,000 (5.8%) were called active. The inconclusive results got no clear call from the source; some entries with a clear call stand among them for comparison. The call rests on the fitted dose curve; in most records, active means well fitted inhibition curve with a large enough effect; inconclusive means small, poorly fitted or top-dose-only effect, or another doubt; inactive means no such curve, though single readings can be large or run the other way. Potencies of inconclusive entries are left out as doubtful fits.
# Assay: Primary qHTS for delayed death inhibitors of the malarial parasite plastid, 48 hour incubation
# Settings: P. falciparum luciferase growth in erythrocytes; series mostly up to 28.7 µM
# How it was run: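 Read-out is firefly luciferase luminescence from an integrated reporter in P. falciparum, so falling signal marks reduced parasite growth. Infected erythrocytes were at 2% hematocrit and 0.1% parasitemia (final) in Albumax-supplemented RPMI 1640.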
# Potency means the concentration at half of the fitted maximal effect; tags describe the fitted curve by direction and shape.
row,Compound,Potency
1,CCN(CC)CCCN(C(C)=O)c1nc(-c2cc(OC)ccc2OC)cs1,"inconclusive [inhibitor, partial curve]"
2,CC(C)C1Nc2ccc(S(N)(=O)=O)cc2C2C=CCC21 (centres undefined),"inconclusive [inhibitor, partial curve, poor fit]"
3,CC(C)CNS(=O)(=O)c1ccc(CCC(=O)Nc2ccc3c(c2)OCO3)cc1,inactive
4,CN(Cc1ccccc1)C1=CC(=[N+]2CCCC2)CC(C)(C)C1,active: 0.928 µM
5,CCn1cc([N+](=O)[O-])c(C(=O)N2CCCCCC2)n1,inactive
6,CC1CC(C)CN(S(=O)(=O)c2ccc(NC(=O)CCNC(=O)c3ccc([N+](=O)[O-])cc3)cc2)C1 (centres undefined),"inconclusive [inhibitor, partial curve]"
7,Cc1cc(OC(C)C(=O)N2CCN(c3ccc(F)cc3)CC2)c2c(C)c(C)c(=O)oc2c1 (centres undefined),"inconclusive [inhibitor, partial curve, poor fit]"
8,CCCSC(=O)N(CC)CC(=O)Nc1c(CC)cccc1CC,inactive
9,CCOc1ccccc1NC(=O)COC(=O)c1ccccc1SCC(=O)N1CCCC1,"inconclusive [inhibitor, single point]"
10,O=c1oc(CCCO)cc2ccc(/C=C/c3cccc([N+](=O)[O-])c3)cc12,inactive
11,Cc1cccc(CCNCc2c(C(=O)O)c(C)n(-c3ccccc3)c2C)c1,inactive
12,Cc1nc2ccccc2c2c1CC(C(C)(Cl)Br)O2 (centres undefined),"inconclusive [inhibitor, single point]"
13,CCNC(=O)CC1S/C(=N/N=C(\C)c2ccccc2)NC1=O (centres undefined),inactive
14,CCCCN=C1NN=C(c2cc3ccccc3o2)CS1,"inconclusive [inhibitor, single point]"
15,Cc1ccc(S(=O)(=O)N2CCOCC2)cc1NC(=O)c1cc(-c2ccccn2)nc2ccccc12,active: 9.28 µM
16,O=Cc1cc(N=Nc2ccccc2Cl)ccc1O,"inconclusive [inhibitor, full curve]"
17,COCCN1Cc2cccc(C(=O)NCc3cccs3)c2C1=O,"inconclusive [inhibitor, single point]"
18,COc1ccc(NC(=O)CC2C(=O)N(c3ccccc3)C(=O)N2Cc2ccco2)cc1 (centres undefined),inactive
19,Cc1cccc(C)c1NC(=O)CN(C)CC(=O)Nc1sc2c(c1C(N)=O)CCC2,"inconclusive [inhibitor, single point]"
20,CC1=NN(C(=O)c2ccc(C)cc2)C(O)(C(F)(F)OC(F)(F)F)C1 (centres undefined),"inconclusive [inhibitor, partial curve]"
21,CCN(CC)C(=O)C1CCCc2c1[nH]c1ccc(Cl)cc21 (centres undefined),"inconclusive [inhibitor, single point]"
22,COc1cc(O)c(C(CC(=O)N2CCCC(C)C2)c2ccc(N(C)C)cc2)c(OC)c1 (centres undefined),"inconclusive [inhibitor, single point]"

row,Compound,Potency
1,O=C(N/N=C/c1ccc([N+](=O)[O-])cc1)c1[nH]ncc1Br,inactive
2,COc1ccccc1NC(=O)C1CCN(c2ncnc3c2nc2n3CCCCC2)CC1,"inconclusive [inhibitor, partial curve, poor fit]"
3,C=C1CCC[C@]2(C)C[C@H]3OC(=O)C(CN(Cc4ccc(OC)c(OC)c4)CC(C)O)[C@H]3CC12 (some centres undefined),"inconclusive [inhibitor, partial curve]"
4,Cc1ccc(Cl)c(OCCCN(C)Cc2ccccc2)c1,"inconclusive [inhibitor, single point]"
5,O=C(CN(CCc1ccccc1)S(=O)(=O)c1ccc(Br)cc1)N/N=C/c1ccc2c(c1)OCO2,"inconclusive [inhibitor, partial curve, poor fit]"
6,COc1ccccc1N(C)S(=O)(=O)c1ccc(C(=O)N2CCC2)cc1,inactive
7,COc1ccc(CC2(CO)CCN(Cc3nc(C(C)C)cs3)CC2)cc1,"inconclusive [inhibitor, partial curve, poor fit]"
8,COc1ccc(/C(C)=N/NC(=O)c2ccc(CSc3nncn3C)cc2)cc1,"inconclusive [inhibitor, full curve]"
9,Cc1cc(=O)oc2c3c(cc(OCC(=O)NCc4cccnc4)c12)OC(C)(C)CC3,"inconclusive [inhibitor, single point]"
10,COCCCNC(=O)C1CCCN(S(C)(=O)=O)C1 (centres undefined),inactive
11,CCSc1nnc(N2C(=O)CC(c3ccsc3)C3=C2CC(C)(C)CC3=O)s1 (centres undefined),"inconclusive [inhibitor, single point]"
12,Cc1onc(-c2c(Cl)cccc2Cl)c1C(=O)NC(C)(C)CO,inactive
13,COCCCNC(=S)N(CCCO)Cc1cc2cc3c(cc2[nH]c1=O)OCO3,"inconclusive [inhibitor, single point]"
14,Nc1nnc(-c2ccncc2)s1,inactive
15,CCc1cc2c(Sc3nc4ccccc4s3)ncnc2s1,active: 1.85 µM
16,COc1cc(-c2noc(CCC(=O)Nc3cccnc3)n2)cc(OC)c1OC,"inconclusive [inhibitor, single point]"
17,COc1ccc(/C=N/NC(=S)Nc2cc(S(=O)(=O)N3CCOCC3)ccc2N2CCOCC2)cc1O,"inconclusive [inhibitor, partial curve, poor fit]"
18,CCc1cc2c(=O)c(-c3ccc4c(c3)OCCO4)coc2c(CN2CCCCC2C)c1O (centres undefined),active: 2.08 µM
19,Nc1cc(C(=O)OCC(=O)N2CCN(C(=O)COC(=O)c3ccc(Cl)c(N)c3)CC2)ccc1Cl,"inconclusive [inhibitor, single point]"
20,O=C(N/C(=C/c1ccc(Br)cc1)C(=O)N1CCCCC1)c1ccccc1F,"inconclusive [inhibitor, partial curve, poor fit]"
21,CCOc1ccc(CNS(=O)(=O)c2ccc(-c3ccc(=O)[nH]n3)o2)cc1OC,"inconclusive [inhibitor, single point]"
22,CC(/C=C1\SC(=S)N(CCCC(=O)Nc2ccc(C(=O)O)cc2)C1=O)=C\c1ccccc1,"inconclusive [inhibitor, single point]"
